# Laboratory results: the supplement of paper PMC8728848
# This is one part of the list.
# B1: GS14009A-pdi-495-27-495 (Parabacteroides distasonis) (protein)
# chain: FEEVNTDPDSPTDVPTTNLLAYSLYYTSYRLYDRWFAMDEPMTFCGYASKMTYIDESRYNFRTGVQDTNWEYLYRILNNLKDIEKRATFNETPNMLNVSKVMQVHLMQVATDRWRDVPYTDAAKMTDGILQPKYDKQEDIYPGLLATLKEAADGFADGGSDDLGEGDLLFGGDIEKWQRYCNSMRLRLAMRISEVSPALAKETVEEVMGNPTKYPIMESNDDNAFFWWIGTDPNYYEPMADGYRTRKTEYCAADVIVDHMNTREDPRRSSYFQPTKESVEAGEPKYVGYTIGAKANAVASKYSIWGARFFTDLAGFSPYMRVAEPWFCVAEASMLGWNTGISAEDAYNKAVTYSMEENSVSAEDIADYLANAGKFTNDKKQIYYEEWVAMFKQGMEGWSLYRRTGVPDNLYPAPGRPANYSNHNVPPFRSPYPDKERNLNNANCAPFDAEVVDNLWGKQMWWDTRTGVH
# Assays:
# Assay in all cases: glycan array binding signal (z-score within array); higher = stronger binding
# Conditions in all cases: glycan notation: IUPAC condensed, linker removed
# [1] = target: Gal(a1-3)[Gal(a1-4)]Gal(b1-4)GlcNAc
# How it was run: (§1)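 From the Consortium for Functional Glycomics database, 3228 arrays were curated, keeping only those whose protein sequence was available. Binding is given as a within-array Z-score averaged across arrays sharing a protein sequence and across linkers. Negative Z-scores can be read as non-binding.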
# [2] = target: Gal(a1-4)Gal(b1-3)GlcNAc(b1-2)Man(a1-3)[Gal(a1-4)Gal(b1-3)GlcNAc(b1-2)Man(a1-6)]Man(b1-4)GlcNAc(b1-4)GlcNAc
# How it was run: as §1
# [3] = target: Gal(a1-4)Gal(b1-4)Glc
# How it was run: as §1
# [4] = target: Gal(a1-4)Gal(b1-4)GlcNAc
# How it was run: as §1
# [5] = target: Gal(a1-4)Gal(b1-4)GlcNAc(b1-2)Man(a1-3)[Gal(a1-4)Gal(b1-4)GlcNAc(b1-2)Man(a1-6)]Man(b1-4)GlcNAc(b1-4)GlcNAc
# How it was run: as §1
# [6] = target: Gal(a1-4)Gal(b1-4)GlcNAc(b1-3)Gal(b1-4)Glc
# How it was run: as §1
# [7] = target: Gal(a1-4)GlcNAc
# How it was run: as §1
# [8] = target: Gal(a1-6)Glc
# How it was run: as §1
# [9] = target: Gal(b1-2)Gal
# How it was run: as §1
# [10] = target: Gal(b1-3)Gal
# How it was run: as §1
# [11] = target: Gal(b1-3)Gal(b1-4)GlcNAc
# How it was run: as §1
# [12] = target: Gal(b1-3)GalNAc
# How it was run: as §1
# [13] = target: Gal(b1-3)GalNAc(a1-3)[Fuc(a1-2)]Gal(b1-4)Glc
# How it was run: as §1
# [14] = target: Gal(b1-3)GalNAc(a1-3)[Fuc(a1-2)]Gal(b1-4)GlcNAc
# How it was run: as §1
# [15] = target: Gal(b1-3)GalNAc(b1-3)Gal
# How it was run: as §1
# [16] = target: Gal(b1-3)GalNAc(b1-3)Gal(a1-4)Gal(b1-4)Glc
# How it was run: as §1
# [17] = target: Gal(b1-3)GalNAc(b1-4)Gal(b1-4)Glc
# How it was run: as §1
# [18] = target: Gal(b1-3)GalNAc(b1-4)[Neu5Ac(a2-3)]Gal(b1-4)Glc
# How it was run: as §1
# [19] = target: Gal(b1-3)GlcNAc
# How it was run: as §1
# [20] = target: Gal(b1-3)GlcNAc(a1-3)Gal(b1-4)GlcNAc
# How it was run: as §1
# [21] = target: Gal(b1-3)GlcNAc(a1-6)Gal(b1-4)GlcNAc
# How it was run: as §1
# [22] = target: Gal(b1-3)GlcNAc(b1-2)Man
# How it was run: as §1
# [23] = target: Gal(b1-3)GlcNAc(b1-2)Man(a1-3)[Gal(b1-3)GlcNAc(b1-2)Man(a1-6)]Man(b1-4)GlcNAc(b1-4)GlcNAc
# How it was run: as §1
# [24] = target: Gal(b1-3)GlcNAc(b1-2)Man(a1-3)[Gal(b1-3)GlcNAc(b1-2)Man(a1-6)]Man(b1-4)GlcNAc(b1-4)[Fuc(a1-6)]GlcNAc
# How it was run: as §1
# [25] = target: Gal(b1-3)GlcNAc(b1-2)Man(a1-3)[GlcNAc(b1-4)][Gal(b1-3)GlcNAc(b1-2)Man(a1-6)]Man(b1-4)GlcNAc(b1-4)GlcNAc
# How it was run: as §1
# [26] = target: Gal(b1-3)GlcNAc(b1-2)[Gal(b1-3)GlcNAc(b1-6)]Man(a1-6)[Gal(b1-3)GlcNAc(b1-2)Man(a1-3)]Man(b1-4)GlcNAc(b1-4)GlcNAc
# How it was run: as §1
# [27] = target: Gal(b1-3)GlcNAc(b1-3)Gal(b1-3)GlcNAc
# How it was run: as §1
# [28] = target: Gal(b1-3)GlcNAc(b1-3)Gal(b1-4)Glc
# How it was run: as §1
# [29] = target: Gal(b1-3)GlcNAc(b1-3)Gal(b1-4)GlcNAc
# How it was run: as §1
# [30] = target: Gal(b1-3)GlcNAc(b1-3)Gal(b1-4)GlcNAc(b1-2)Man(a1-3)[Gal(b1-3)GlcNAc(b1-3)Gal(b1-4)GlcNAc(b1-2)Man(a1-6)]Man(b1-4)GlcNAc(b1-4)GlcNAc
# How it was run: as §1
# [31] = target: Gal(b1-3)GlcNAc(b1-3)Gal(b1-4)GlcNAc(b1-2)[Gal(b1-3)GlcNAc(b1-3)Gal(b1-4)GlcNAc(b1-6)]Man(a1-6)[Gal(b1-3)GlcNAc(b1-3)Gal(b1-4)GlcNAc(b1-2)Man(a1-3)]Man(b1-4)GlcNAc(b1-4)[Fuc(a1-6)]GlcNAc
# How it was run: as §1
# [32] = target: Gal(b1-3)GlcNAc(b1-3)Gal(b1-4)GlcNAc(b1-3)Gal(b1-4)GlcNAc(b1-2)[Gal(b1-3)GlcNAc(b1-3)Gal(b1-4)GlcNAc(b1-3)Gal(b1-4)GlcNAc(b1-6)]Man(a1-6)[Gal(b1-3)GlcNAc(b1-3)Gal(b1-4)GlcNAc(b1-3)Gal(b1-4)GlcNAc(b1-2)Man(a1-3)]Man(b1-4)GlcNAc(b1-4)[Fuc(a1-6)]GlcNAc
# How it was run: as §1
# [33] = target: Gal(b1-3)GlcNAc(b1-3)Gal(b1-4)GlcNAc(b1-6)[Gal(b1-3)GlcNAc(b1-3)]Gal(b1-4)Glc
# How it was run: as §1
# [34] = target: Gal(b1-3)GlcNAc(b1-3)Gal(b1-4)[Fuc(a1-3)]GlcNAc
# How it was run: as §1
# [35] = target: Gal(b1-3)GlcNAc(b1-3)Gal(b1-4)[Fuc(a1-3)]GlcNAc(b1-6)[Gal(b1-3)GlcNAc(b1-3)]Gal(b1-4)Glc
# How it was run: as §1
# [36] = target: Gal(b1-3)GlcNAc(b1-3)GalNAc
# How it was run: as §1
# [37] = target: Gal(b1-3)GlcNAc(b1-6)Gal(b1-4)GlcNAc
# How it was run: as §1
# [38] = target: Gal(b1-3)GlcNAc(b1-6)GalNAc
# How it was run: as §1
binder,measurement,setting,value
B1,glycan array binding signal (z-score),[1],-0.106
same,glycan array binding signal (z-score),[2],2.33
same,glycan array binding signal (z-score),[3],-0.144
same,glycan array binding signal (z-score),[4],-0.256
same,glycan array binding signal (z-score),[5],2.23
same,glycan array binding signal (z-score),[6],-0.352
same,glycan array binding signal (z-score),[7],-0.025
same,glycan array binding signal (z-score),[8],-0.685
same,glycan array binding signal (z-score),[9],-0.447
same,glycan array binding signal (z-score),[10],0.219
same,glycan array binding signal (z-score),[11],0.229
same,glycan array binding signal (z-score),[12],-0.394
same,glycan array binding signal (z-score),[13],0.514
same,glycan array binding signal (z-score),[14],-0.831
same,glycan array binding signal (z-score),[15],-0.25
same,glycan array binding signal (z-score),[16],-0.55
same,glycan array binding signal (z-score),[17],0.001
same,glycan array binding signal (z-score),[18],-0.004
same,glycan array binding signal (z-score),[19],-0.321
same,glycan array binding signal (z-score),[20],-0.776
same,glycan array binding signal (z-score),[21],-0.358
same,glycan array binding signal (z-score),[22],-0.202
same,glycan array binding signal (z-score),[23],0.798
same,glycan array binding signal (z-score),[24],0.702
same,glycan array binding signal (z-score),[25],0.341
same,glycan array binding signal (z-score),[26],-0.34
same,glycan array binding signal (z-score),[27],0.618
same,glycan array binding signal (z-score),[28],-1.07
same,glycan array binding signal (z-score),[29],-0.544
same,glycan array binding signal (z-score),[30],4.58
same,glycan array binding signal (z-score),[31],0.356
same,glycan array binding signal (z-score),[32],0.18
same,glycan array binding signal (z-score),[33],-0.161
same,glycan array binding signal (z-score),[34],-0.557
same,glycan array binding signal (z-score),[35],-0.233
same,glycan array binding signal (z-score),[36],0.476
same,glycan array binding signal (z-score),[37],-0.333
same,glycan array binding signal (z-score),[38],-0.364
